# Substitutions are numbered along the chain they refer to; changes in the protein carry UniProt numbers. Some of the results follow.
# T1: RBFOX1 RRM (Homo sapiens, UniProt Q9NWB1 109-208)
# T1 sequence: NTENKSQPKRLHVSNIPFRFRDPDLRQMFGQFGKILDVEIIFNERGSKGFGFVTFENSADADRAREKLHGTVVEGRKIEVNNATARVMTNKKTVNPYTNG
# B1: UUCGACU (DNA:RNA)
# RNA: GGGAGACCGGAAUUCAGAUUGUCCUUCGACUUUAAAUCCCGUCGUAGCCACCA
# DNA 1: CAATCTGAATTCCGGTCTCCC
# DNA 2: TGGTGGCTACGACGGGATT
# B2: CGACUGG (DNA:RNA)
# RNA: GGGAGACCGGAAUUCAGAUUGUCCCGACUGGUUAAAUCCCGUCGUAGCCACCA
# DNA 1: CAATCTGAATTCCGGTCTCCC
# DNA 2: TGGTGGCTACGACGGGATT
# B3: ACUACGA (DNA:RNA)
# RNA: B2 RNA with C25A, G26C, A27U, C28A, U29C, G31A
# DNA 1: CAATCTGAATTCCGGTCTCCC
# DNA 2: TGGTGGCTACGACGGGATT
# B4: GCACCGA (DNA:RNA)
# RNA: B2 RNA with C25G, G26C, U29C, G31A
# DNA 1: CAATCTGAATTCCGGTCTCCC
# DNA 2: TGGTGGCTACGACGGGATT
# B5: ACCCCUG (DNA:RNA)
# RNA: B2 RNA with C25A, G26C, A27C, U29C, G30U
# DNA 1: CAATCTGAATTCCGGTCTCCC
# DNA 2: TGGTGGCTACGACGGGATT
# B6: GGGAUAC (DNA:RNA)
# RNA: B2 RNA with C25G, A27G, C28A, G30A, G31C
# DNA 1: CAATCTGAATTCCGGTCTCCC
# DNA 2: TGGTGGCTACGACGGGATT
# B7: UUAAACU (DNA:RNA)
# RNA: B1 RNA with C27A, G28A
# DNA 1: CAATCTGAATTCCGGTCTCCC
# DNA 2: TGGTGGCTACGACGGGATT
# B8: CGUGCCU (DNA:RNA)
# RNA: B1 RNA with U25C, U26G, C27U, A29C
# DNA 1: CAATCTGAATTCCGGTCTCCC
# DNA 2: TGGTGGCTACGACGGGATT
# B9: AUGGUGA (DNA:RNA)
# RNA: B2 RNA with C25A, G26U, A27G, C28G, G31A
# DNA 1: CAATCTGAATTCCGGTCTCCC
# DNA 2: TGGTGGCTACGACGGGATT
# B10: CGCCCUC (DNA:RNA)
# RNA: B2 RNA with A27C, U29C, G30U, G31C
# DNA 1: CAATCTGAATTCCGGTCTCCC
# DNA 2: TGGTGGCTACGACGGGATT
# B11: UUACGAU (DNA:RNA)
# RNA: B1 RNA with C27A, G28C, A29G, C30A
# DNA 1: CAATCTGAATTCCGGTCTCCC
# DNA 2: TGGTGGCTACGACGGGATT
# B12: AUGCGAC (DNA:RNA)
# RNA: B2 RNA with C25A, G26U, A27G, U29G, G30A, G31C
# DNA 1: CAATCTGAATTCCGGTCTCCC
# DNA 2: TGGTGGCTACGACGGGATT
# B13: CUCGCGA (DNA:RNA)
# RNA: B1 RNA with U25C, A29C, C30G, U31A
# DNA 1: CAATCTGAATTCCGGTCTCCC
# DNA 2: TGGTGGCTACGACGGGATT
# B14: UCCGAUG (DNA:RNA)
# RNA: B1 RNA with U26C, C30U, U31G
# DNA 1: CAATCTGAATTCCGGTCTCCC
# DNA 2: TGGTGGCTACGACGGGATT
# B15: UGGCACU (DNA:RNA)
# RNA: B1 RNA with U26G, C27G, G28C
# DNA 1: CAATCTGAATTCCGGTCTCCC
# DNA 2: TGGTGGCTACGACGGGATT
# B16: UUGACUU (DNA:RNA)
# RNA: B1 RNA with C27G, G28A, A29C, C30U
# DNA 1: CAATCTGAATTCCGGTCTCCC
# DNA 2: TGGTGGCTACGACGGGATT
# B17: GGGAGGA (DNA:RNA)
# RNA: B2 RNA with C25G, A27G, C28A, U29G, G31A
# DNA 1: CAATCTGAATTCCGGTCTCCC
# DNA 2: TGGTGGCTACGACGGGATT
# B18: GUUGUAC (DNA:RNA)
# RNA: B1 RNA with U25G, C27U, A29U, C30A, U31C
# DNA 1: CAATCTGAATTCCGGTCTCCC
# DNA 2: TGGTGGCTACGACGGGATT
# B19: GCAAUCA (DNA:RNA)
# RNA: B2 RNA with C25G, G26C, C28A, G30C, G31A
# DNA 1: CAATCTGAATTCCGGTCTCCC
# DNA 2: TGGTGGCTACGACGGGATT
# B20: GGCAGAU (DNA:RNA)
# RNA: B1 RNA with U25G, U26G, G28A, A29G, C30A
# DNA 1: CAATCTGAATTCCGGTCTCCC
# DNA 2: TGGTGGCTACGACGGGATT
# B21: GGAGCGA (DNA:RNA)
# RNA: B2 RNA with C25G, C28G, U29C, G31A
# DNA 1: CAATCTGAATTCCGGTCTCCC
# DNA 2: TGGTGGCTACGACGGGATT
# B22: UGGACGG (DNA:RNA)
# RNA: B2 RNA with C25U, A27G, C28A, U29C
# DNA 1: CAATCTGAATTCCGGTCTCCC
# DNA 2: TGGTGGCTACGACGGGATT
# B23: GGCGUCC (DNA:RNA)
# RNA: B1 RNA with U25G, U26G, A29U, U31C
# DNA 1: CAATCTGAATTCCGGTCTCCC
# DNA 2: TGGTGGCTACGACGGGATT
# B24: CGCGUUC (DNA:RNA)
# RNA: B2 RNA with A27C, C28G, G30U, G31C
# DNA 1: CAATCTGAATTCCGGTCTCCC
# DNA 2: TGGTGGCTACGACGGGATT
# B25: UACUUGG (DNA:RNA)
# RNA: B2 RNA with C25U, G26A, A27C, C28U
# DNA 1: CAATCTGAATTCCGGTCTCCC
# DNA 2: TGGTGGCTACGACGGGATT
# B26: CAAUUUC (DNA:RNA)
# RNA: B2 RNA with G26A, C28U, G30U, G31C
# DNA 1: CAATCTGAATTCCGGTCTCCC
# DNA 2: TGGTGGCTACGACGGGATT
# B27: AACCUCU (DNA:RNA)
# RNA: B1 RNA with U25A, U26A, G28C, A29U
# DNA 1: CAATCTGAATTCCGGTCTCCC
# DNA 2: TGGTGGCTACGACGGGATT
# B28: ACUAAGG (DNA:RNA)
# RNA: B2 RNA with C25A, G26C, A27U, C28A, U29A
# DNA 1: CAATCTGAATTCCGGTCTCCC
# DNA 2: TGGTGGCTACGACGGGATT
# B29: GAUGCGG (DNA:RNA)
# RNA: B2 RNA with C25G, G26A, A27U, C28G, U29C
# DNA 1: CAATCTGAATTCCGGTCTCCC
# DNA 2: TGGTGGCTACGACGGGATT
# B30: AGAGACG (DNA:RNA)
# RNA: B2 RNA with C25A, C28G, U29A, G30C
# DNA 1: CAATCTGAATTCCGGTCTCCC
# DNA 2: TGGTGGCTACGACGGGATT
# B31: CGAGGUA (DNA:RNA)
# RNA: B2 RNA with C28G, U29G, G30U, G31A
# DNA 1: CAATCTGAATTCCGGTCTCCC
# DNA 2: TGGTGGCTACGACGGGATT
# Biological target: T1, RBFOX1 RRM
# Assay: EMSA; HiTS-Eq, 1 nM pool, 10 min; buffer printed only for the single-RNA assays: 10 mM Tris pH 7.5, 150 mM NaCl, 3.4 mM EDTA, 0.001% NP-40, 30 C
# Settings: tags: His6 N-terminal (pET28a); label: 5' 32P
# Procedure, shortened: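 A pool of RNA with 7 randomized nucleotides, 5′-radiolabelled and with DNA-annealed flanks, was equilibrated at 1 nM for 10 min in 50 µL with purified RbFox RRM, wild type or mutant, across increasing protein concentrations. Free RNA was separated by 8% native PAGE, excised, reverse-transcribed, barcoded by PCR and sequenced. Relative association constants were obtained from read-count changes of each RNA species versus the control reaction and normalised to the cognate motif.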
row,Binder,binding signal
1,B1,0.0106 KA relative to UGCAUGU
2,B2,0.0211 KA relative to UGCAUGU
3,B3,0.00657 KA relative to UGCAUGU
4,B4,0.0124 KA relative to UGCAUGU
5,B5,0.0032 KA relative to UGCAUGU
6,B6,0.021 KA relative to UGCAUGU
7,B7,0.00186 KA relative to UGCAUGU
8,B8,0.012 KA relative to UGCAUGU
9,B9,0.0135 KA relative to UGCAUGU
10,B10,0.00892 KA relative to UGCAUGU
11,B11,0.0103 KA relative to UGCAUGU
12,B12,0.00489 KA relative to UGCAUGU
13,B13,0.0103 KA relative to UGCAUGU
14,B14,0.015 KA relative to UGCAUGU
15,B15,0.0174 KA relative to UGCAUGU
16,B16,0.017 KA relative to UGCAUGU

row,Binder,binding signal
1,B17,0.0101 KA relative to UGCAUGU
2,B18,0.018 KA relative to UGCAUGU
3,B19,0.00342 KA relative to UGCAUGU
4,B20,0.00732 KA relative to UGCAUGU
5,B21,0.0139 KA relative to UGCAUGU
6,B22,0.0246 KA relative to UGCAUGU
7,B23,0.0185 KA relative to UGCAUGU
8,B24,0.0164 KA relative to UGCAUGU
9,B25,0.0131 KA relative to UGCAUGU
10,B26,0.00118 KA relative to UGCAUGU
11,B27,0.00119 KA relative to UGCAUGU
12,B28,0.00769 KA relative to UGCAUGU
13,B29,0.0137 KA relative to UGCAUGU
14,B30,0.00818 KA relative to UGCAUGU
15,B31,0.00788 KA relative to UGCAUGU

# Reference: paper PMC9911399, “Two distinct binding modes provide the RNA-binding protein RbFox with extraordinary sequence specificity”
